Here are results for four sequences from the supplement of paper PMC12230231.

± gives the standard deviation of the averaged measurements. Restriction of a single-cycle SIVsab GFP reporter by TRIM5α v1-loop variants in CRFK cells. Human variants: read share among cells still uninfected after two challenges over input, higher = gained restriction. Rhesus variants: share among infected cells over input, higher = lost restriction. Reporter dose not given per row. No active / inactive call per row; the paper calls a change when both replicates lie above its controls (mean + 2 SD of stop or wild-type variants, or the top frameshift score). Residues outside the varied loop are taken from Swiss-Prot. The paper reads the human single-substitution scores as noise; they and the rhesus combinations repeat poorly (rank correlation 0.3 to 0.4), indel scores repeat only for the top variants, rhesus substitutions well (0.9).

The test system of this data set is SIVsab (simian immunodeficiency virus of sabaeus monkeys), single-cycle GFP reporter, in CRFK cells. Description: enrichment among uninfected cells over input (fold); higher = stronger restriction. Particulars: library: human / rhesus combinations. How it is done:
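Pools of CRFK cells expressing variants of the TRIM5α v1 loop were challenged with the single-cycle reporter, sorted by GFP and sequenced; mean of two replicates.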
Consider “MASGILVNVKEEVTCPICLELLTQPLSLDCGHSFCQACLTANHKKSMLDKGESSCPVCRISYQPENIRPNRHVANIVEKLREVKLSPEGQKVDHCARHGEKLLLFCQEDGKVICWLCERSQEHRGHHTFLTEEVAREYQVKLQAALEMLRQKQQEAEELEADIREEKASWKTQIQYDKTNVLADFEQLRDILDWEESNELQNLEKEEEDILKSLTNSETEMVQQTQSLRELISDLEHRLQGSVMELLQGVDGVIKRTENVTLKKPETFPKNQRRVFRAPDLKGMLEVFRELTDVRRYWVDVTVAPNNISCAVISEDKRQVSSPKPQIIYQARGTRFTFQSLVNFNYCTGILGSQSITSGKHYWEVDVSKKTAWILGVCAGFQPDAMCNIEKNENYQPKYGYWVIGLEEGVKCSAFQDSSFHTPSVPFIVPLSVIICPDRVGVFLDYEACTVSFFNITNHGFLIYKFSHCSFSQPVFPYLNPRKCGVPMTLCSPSS [human TRIM5α, 330-340 = QARGTRFTFQSLV]”, for which the enrichment worked out at 0.11 ± 0.043.

Take “MASGILVNVKEEVTCPICLELLTQPLSLDCGHSFCQACLTANHKKSMLDKGESSCPVCRISYQPENIRPNRHVANIVEKLREVKLSPEGQKVDHCARHGEKLLLFCQEDGKVICWLCERSQEHRGHHTFLTEEVAREYQVKLQAALEMLRQKQQEAEELEADIREEKASWKTQIQYDKTNVLADFEQLRDILDWEESNELQNLEKEEEDILKSLTNSETEMVQQTQSLRELISDLEHRLQGSVMELLQGVDGVIKRTENVTLKKPETFPKNQRRVFRAPDLKGMLEVFRELTDVRRYWVDVTVAPNNISCAVISEDKRQVSSPKPQIIYQARGTRFTFQTFTNFNYCTGILGSQSITSGKHYWEVDVSKKTAWILGVCAGFQPDAMCNIEKNENYQPKYGYWVIGLEEGVKCSAFQDSSFHTPSVPFIVPLSVIICPDRVGVFLDYEACTVSFFNITNHGFLIYKFSHCSFSQPVFPYLNPRKCGVPMTLCSPSS [human TRIM5α, 330-340 = QARGTRFTFQTFT]”: the enrichment is 1.84 ± 0.28.

Regarding “MASGILVNVKEEVTCPICLELLTQPLSLDCGHSFCQACLTANHKKSMLDKGESSCPVCRISYQPENIRPNRHVANIVEKLREVKLSPEGQKVDHCARHGEKLLLFCQEDGKVICWLCERSQEHRGHHTFLTEEVAREYQVKLQAALEMLRQKQQEAEELEADIREEKASWKTQIQYDKTNVLADFEQLRDILDWEESNELQNLEKEEEDILKSLTNSETEMVQQTQSLRELISDLEHRLQGSVMELLQGVDGVIKRTENVTLKKPETFPKNQRRVFRAPDLKGMLEVFRELTDVRRYWVDVTVAPNNISCAVISEDKRQVSSPKPQIIYQARGTRFTFQTFVNFNYCTGILGSQSITSGKHYWEVDVSKKTAWILGVCAGFQPDAMCNIEKNENYQPKYGYWVIGLEEGVKCSAFQDSSFHTPSVPFIVPLSVIICPDRVGVFLDYEACTVSFFNITNHGFLIYKFSHCSFSQPVFPYLNPRKCGVPMTLCSPSS [human TRIM5α, 330-340 = QARGTRFTFQTFV]”, the enrichment is 0.157 ± 0.024.

As to “MASGILVNVKEEVTCPICLELLTQPLSLDCGHSFCQACLTANHKKSMLDKGESSCPVCRISYQPENIRPNRHVANIVEKLREVKLSPEGQKVDHCARHGEKLLLFCQEDGKVICWLCERSQEHRGHHTFLTEEVAREYQVKLQAALEMLRQKQQEAEELEADIREEKASWKTQIQYDKTNVLADFEQLRDILDWEESNELQNLEKEEEDILKSLTNSETEMVQQTQSLRELISDLEHRLQGSVMELLQGVDGVIKRTENVTLKKPETFPKNQRRVFRAPDLKGMLEVFRELTDVRRYWVDVTVAPNNISCAVISEDKRQVSSPKPQIIYQARGTRFTFQTLTNFNYCTGILGSQSITSGKHYWEVDVSKKTAWILGVCAGFQPDAMCNIEKNENYQPKYGYWVIGLEEGVKCSAFQDSSFHTPSVPFIVPLSVIICPDRVGVFLDYEACTVSFFNITNHGFLIYKFSHCSFSQPVFPYLNPRKCGVPMTLCSPSS [human TRIM5α, 330-340 = QARGTRFTFQTLT]”, the enrichment amounted to 0.452 ± 0.25.
